# In all, about 230,000 compounds went through this assay and fewer than 10 were called active. Inconclusive results, whose numbers are uncertain, are shown with a selection of clear calls. The call rests on the fitted dose curve; in most records, active means well fitted curve in the direction sought with a large enough effect; inconclusive means small, poorly fitted or top-dose-only effect, or effect the other way, or another doubt; inactive means no such curve, though single readings can be large or run the other way. No potency is given beside an inconclusive call; the fits are too rough.
# Target: Runt-related transcription factor 1 (Homo sapiens) + Core-binding factor subunit beta (Homo sapiens) (UniProt Q01196+Q13951)
# Experiment: qHTS Assay for Compounds Blocking the Interaction Between CBF-beta and RUNX1 for the Treatment of Acute Myeloid Leukemia; on activity, negative = inhibition: % of control where 0% means no effect
# Conditions: AlphaScreen CBFb-His/RUNX1-biotin binding, biochemical; activity, negative = inhibition: at 59.8 µM (top of the series) unless noted
# Procedure, shortened: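 Proteins preincubated together for 20 min at RT before compound addition; 15 min later, nickel and streptavidin beads were added and left 90 min prior to AlphaScreen measurement.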
# UniProt Q01196, sequence (Q01196 whole entry, looked up): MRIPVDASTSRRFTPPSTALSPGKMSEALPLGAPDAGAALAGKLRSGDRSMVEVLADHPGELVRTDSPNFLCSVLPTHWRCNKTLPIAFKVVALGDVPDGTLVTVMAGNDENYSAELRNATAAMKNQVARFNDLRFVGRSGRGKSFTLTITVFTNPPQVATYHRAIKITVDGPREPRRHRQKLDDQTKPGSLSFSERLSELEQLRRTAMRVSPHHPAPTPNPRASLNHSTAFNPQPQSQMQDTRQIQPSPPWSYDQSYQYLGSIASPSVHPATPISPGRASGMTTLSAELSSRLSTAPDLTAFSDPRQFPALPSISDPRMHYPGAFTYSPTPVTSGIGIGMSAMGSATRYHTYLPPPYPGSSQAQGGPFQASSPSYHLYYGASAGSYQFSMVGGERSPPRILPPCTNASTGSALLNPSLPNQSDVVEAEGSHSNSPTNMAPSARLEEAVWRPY
# UniProt Q01196, sequence (Q13951 whole entry, looked up): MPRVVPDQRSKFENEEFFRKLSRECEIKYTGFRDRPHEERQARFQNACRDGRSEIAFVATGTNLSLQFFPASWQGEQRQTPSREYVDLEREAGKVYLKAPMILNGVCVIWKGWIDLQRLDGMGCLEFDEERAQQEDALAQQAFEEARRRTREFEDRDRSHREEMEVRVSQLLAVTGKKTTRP
Compound,Potency,"activity, negative = inhibition"
O=C(O)c1ccccc1-c1ccc(/C=C/c2cc(C(F)(F)F)[nH]c(=O)n2)o1,"inconclusive [inhibitor, partial curve]",
CCOC(=O)c1c(/N=C/C2=C(O)CCCC2=O)sc2c1CCCC2,,inactive: -1.58%
COc1ccc(-n2c(SCC(=O)NNC(=O)c3ccccc3C)nnc2-c2ccncc2)cc1,,inactive: 3.8%
COc1ccc(NC(=O)Nc2cc(NC(=O)Nc3ccc(OC)cc3)c(C)nc2C)cc1,"inconclusive [inhibitor, single point]",
Cc1ccc(OCc2nc(-c3ccccc3)no2)c(C)c1,"inconclusive [activator, single point]",
Cc1cc(/C=C2\NC(=S)N(C)C2=O)ccc1N1CCCC1,,inactive: 3.51%
CC1(C)C(O)CC[C@]2(C)C1CC[C@@]1(C)C2C(=O)C=C2[C@@H]3C[C@@](C)(C(=O)O)CC[C@@]3(C)CCC21C (stereo partly drawn),,inactive: 7.8%
CCc1nnc(NC(=O)C(CC)CC)s1,,inactive: -1.68%
COc1cc(-c2nc3ccc(C)cn3c2Nc2ccc3c(c2)OCCO3)ccc1O,"inconclusive [inhibitor, single point]",
O=C(CCNS(=O)(=O)c1c(Cl)cccc1Cl)OCC(=O)c1ccccc1F,"inconclusive [activator, partial curve]",
O=C1NC(=O)C(=Cc2coc3ccccc3c2=O)C(=O)N1,,inactive: -6.66%
CS(=O)(=O)c1ccc(C(=O)NCCN2C(=O)S/C(=C\c3cccnc3)C2=O)cc1[N+](=O)[O-],,inactive: 3.35%
O=C(NCCOc1ccccc1F)Nc1ccc(Br)cc1,"inconclusive [activator, single point]",
COCCNC(=S)NCc1ccc2[nH]c3c(c2c1)CCCC3,,inactive: -10.3%
Cc1ccc(S(=O)(=O)Cc2ccc(C(=O)N3CCc4ccccc4C3)o2)cc1,"inconclusive [inhibitor, single point]",
CCCCOc1ccc(C(=O)Nc2ccc(N3CCN(C(=O)C(C)C)CC3)cc2)cc1,,inactive: 7.43%
CCOC(=O)c1ccccc1NC(=O)c1ccc2c(=O)n3c(nc2c1)CCCCC3,,inactive: 4.28%
CCOC(=O)C(=CNc1ccccc1Cl)C(=O)OCC,"inconclusive [activator, single point]",
COc1ccccc1-n1c(O)c(C=NCc2ccc3c(c2)OCO3)c(=O)[nH]c1=O,,inactive: 8.63%
O=C(/C=C/c1cc[n+](CC(=O)c2ccc3cccc4c3c2CC4)cc1)c1ccc2cccc3c2c1CC3,"inconclusive [inhibitor, full curve]",
CC(C)C[C@H](N)CSSC[C@@H](N)CC(C)C,,inactive: 3.83%
O=c1[nH]c(=O)n(C2CCCCC2)c(O)c1C=Nc1ccc(N2CCOCC2)cc1,"inconclusive [inhibitor, single point]",

Compound,Potency,"activity, negative = inhibition"
CN1C(=O)C(Cl)(Cl)C(=O)c2ccccc21,,inactive: -3.45%
C=C1[C@@H](C)[C@H]2[C@H](Cc3ccccc3)NC(=O)[C@]23[C@H](OC(C)=O)/C=C/[C@](C)(O)C(=O)[C@@H](C)C/C=C/[C@H]3[C@@H]1O,"inconclusive [activator, partial curve]",
COC(=O)c1cc(O)cc(OC)c1C(=O)c1c(O)cc(C)cc1O,"inconclusive [inhibitor, single point]",
O=C(/C=C\c1cn(-c2ccccc2)nc1-c1ccc2c(c1)OCCO2)N1CCOCC1,"inconclusive [inhibitor, single point]",
CCOC(=O)C1CCN(c2nc3ccccc3nc2C(C#N)C(=O)NCCc2ccccc2)CC1 (stereo not drawn),,inactive: 16.8%
CC(C)NC[C@H]1CCc2cc(CO)c([N+](=O)[O-])cc2N1,"inconclusive [inhibitor, partial curve]",
COc1ccc(OCC(=O)NC(=S)N2CCCc3ccccc32)cc1,"inconclusive [inhibitor, single point]",
CC(C)OC(C)C,,inactive: -0.34%
COc1cc(O)c(C(CC(=O)N2CCCCC2)c2ccc(N(C)C)cc2)c(OC)c1 (stereo not drawn),"inconclusive [inhibitor, single point]",
Cc1cccc(N2CC(C(=O)OCC(=O)c3ccc(OC(=O)c4cccs4)cc3)CC2=O)c1C (stereo not drawn),,inactive: 1.76%
COc1ccc2c3c(cccc13)C(=O)N(O)C2=O,,inactive: -0.18%
COc1ccc(O)c(/C=N/NC(=O)c2ccc(CSc3nc(C)cc(C)n3)cc2)c1,"inconclusive [inhibitor, partial curve]",
COc1ccc(-n2c(Cc3cccn3C)nnc2SCC(=O)Nc2ccc3c(c2)OCO3)cc1,"inconclusive [inhibitor, single point]",
COc1cccc(C2C3=C(CCCC3=O)NC3=C2C(=O)c2ccccc23)c1 (stereo not drawn),"inconclusive [inhibitor, single point]",
O=C(COC(=O)c1ccc([N+](=O)[O-])o1)Nc1cccc(S(=O)(=O)N2CCOCC2)c1,,inactive: -3.26%
CCN(CC(=O)NCc1ccc(F)cc1)Cc1nc2cc(Cl)ccc2c(=O)[nH]1,"inconclusive [activator, full curve, poor fit]",
Fc1ccc(C(OCCN2CCN(CCCc3ccccc3)CC2)c2ccc(F)cc2)cc1,"inconclusive [inhibitor, full curve, poor fit]",
O=C(c1ccccc1)N1CCN(c2ccc([N+](=O)[O-])cc2-n2cccc2)CC1,"inconclusive [inhibitor, single point]",
Cc1nc2ccccc2c2c1C(=O)N(c1ccc(C(=O)O)cc1)C2=O,"inconclusive [inhibitor, single point]",
CCOC(=O)c1c(C)[nH]c(C2=NNC(=Nc3ccccc3OC)SC2)c1C,"inconclusive [inhibitor, partial curve]",
CC(C)C[C@H](NC(=O)[C@@H](Cc1c[nH]c2ccccc12)NC(=O)[C@H](Cc1ccc(O)cc1)NC(=O)[C@H](CO)NC(=O)[C@H](Cc1c[nH]c2ccccc12)NC(=O)[C@H](Cc1cnc[nH]1)NC(=O)[C@@H]1CCC(=O)N1)C(=O)N[C@@H](CCCN=C(N)N)C(=O)N1CCC[C@H]1C(=O)NCC(N)=O,"inconclusive [inhibitor, single point]",
